From PubChem BioAssay AID1671193 (National Center for Advancing Translational Sciences (NCATS), 2021)
Screen size: about 150,000 compounds; about 180 (0.12%) were called active. Inconclusive results, whose numbers are uncertain, are shown with a selection of clear calls. Calls follow the shape of the dose curve; as a rule, active = well fitted cell-killing curve with a large enough effect; inconclusive = small, poorly fitted or top-dose-only effect, or effect the other way; inactive = flat fitted curve, though single readings scatter. A potency beside an inconclusive call is a rough fit, not a confirmed value.

Test: GF-AFC viability counterscreen for inhibitors of alpha-synuclein gene (SNCA) expression; also: nearly all actives have a fitted effect of over 30% in size;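 as to activity change, negative = cytotoxicity: 0% = DMSO-treated cells and -100% = medium-only wells without cells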
Settings: HEK-293-SNCA-luc viability, GF-AFC fluorescence, 24 h; activity change, negative = cytotoxicity: at 57.1 µM (top of the series) unless noted
How it was run: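 HEK-293-SNCA-luc cells (1500/well) plated 24 h, then exposed 24 h to a dilution series; GF-AFC added 30 min at 37C, fluorescence 405/540 nm; normalised to medium-only and DMSO wells, Hill fit.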
Potency is read from the fitted curve at half-maximal effect; tags tell the direction and shape of the fitted curve.

For `COc1ccc(C2Cn3cnc(C(=O)N4CCC(C(=O)NCc5ccccn5)CC4)c3CO2)cc1` (stereo unspecified), which Potency is on record?
Its Potency is “inactive”.

Which Potency does the source give for `COc1ccc(Br)cc1CNC(=O)c1cc(=O)[nH]c2ccc(S(=O)(=O)N3CCCCC3C)cc12` (stereo unspecified) here?
Its Potency is inconclusive: 39.8 µM [cytotoxic, single point].

With `COc1ccc(S(=O)(=O)N(CC(=O)N2CCc3ccccc3C2)c2ccc(C)cc2)cc1` as the compound, how does the Potency read?
The Potency was inconclusive: 2.24 µM [cytotoxic, full curve].

For `COC(=O)C1=C(C)N=C2SC=C(CC(=O)NCCC(C)C)N2C1c1ccccc1Cl` (stereo unspecified), which Potency is on record?
Its Potency is inconclusive: 28.2 µM [rising, single point].

For `COc1ccc(C2CC(C(=O)NCc3ccccc3)CN(C(=O)C3CC3)C2)cc1OC` (stereo unspecified), which Potency is on record?
The Potency was “inactive”.

Which Potency does the source give for `COc1ccc(-c2cc(N3CCC(NC(=O)c4ccc5cc[nH]c5c4)CC3)n[nH]2)cc1` here?
The Potency was “inactive”.

With `O=C(NC1CCCN(c2ccnc3ccnn23)C1)C1CC1` (stereo unspecified) as the compound, how does the Potency read?
Its Potency is inconclusive: 7.94 µM [rising, partial curve, poor fit].

Which Potency does the source give for `CC(=O)NC1(C)CCN(Cc2cccc(Nc3ccccc3)c2)C1` (stereo unspecified) here?
Its Potency is “inactive”.

For `CCOc1ccc(C(=O)NC2CCN(c3cc(-c4ccc(OC)cc4)[nH]n3)CC2)cc1OCC`, which Potency is on record?
The Potency was inconclusive: 28.2 µM [cytotoxic, single point].

With `CCC(Oc1ccccc1)C(=O)Nc1cccc(OCc2cc(=O)n3cccc(C)c3n2)c1` (stereo unspecified) as the compound, how does the Potency read?
Its Potency is inconclusive: 28.2 µM [cytotoxic, partial curve, poor fit].

Which Potency does the source give for `COc1cccc(-c2cc(C3CCN(C(=O)Nc4ccccc4C(F)(F)F)CC3)[nH]n2)c1` here?
Its Potency is “inactive”.

With `CCOC(=O)Cn1c(=O)oc2cc(S(=O)(=O)N3CCN(c4cccc(Cl)c4)CC3)ccc21` as the compound, how does the Potency read?
Its Potency is “inactive”.

For `CC(C)C(NC(=O)C1CCC1)C(=O)N1CCN(c2ccccn2)CC1` (stereo unspecified), which Potency is on record?
Its Potency is “inactive”.

Which Potency does the source give for `COCC(=O)N1CCc2c(sc3ncnc(N4CCN(C)CC4)c23)C1` here?
The Potency was “inactive”.

With `COc1ccccc1CNC(=O)CSc1nc(-c2ccc(OC)c(OC)c2)cc(C(F)(F)F)n1` as the compound, how does the Potency read?
Its Potency is inconclusive: 35.5 µM [cytotoxic, single point].

With `O=C(Cn1cnc2nc3c(cc2c1=O)CCCC3)Nc1ccc(F)cc1Cl` as the compound, how does the Potency read?
The Potency was inconclusive: 11.2 µM [cytotoxic, partial curve, poor fit].

For `Cc1ccc(C)c([S+](=O)([O-])c2nnn3c2nc(NCc2ccncc2)c2ccccc23)c1`, which Potency is on record?
Its Potency is “inactive”.

With `Cc1ccc(C)c(N2CCN(c3nc4ccc(C)cc4nc3-n3nc(C)cc3C)CC2)c1` as the compound, how does the Potency read?
Its Potency is “inactive”.

With `CCOc1ccc(CCNC(=O)c2ccc(-n3c(C)cc4c3CCCC4)cc2)cc1OCC` as the compound, how does the Potency read?
Its Potency is inconclusive: 28.2 µM [cytotoxic, partial curve, poor fit].

Which Potency does the source give for `Cc1cc(C)cc(-c2ccc(CN3CCCC3C(=O)N3CCN(C)CC3)cc2)c1` (stereo unspecified) here?
Its Potency is “inactive”.

With `COc1ccc(C2=N[C@H](c3ccc(Cl)cc3)[C@H](c3ccc(Cl)cc3)N2C(=O)N2CCNC(=O)C2)c(OC(C)C)c1` as the compound, how does the Potency read?
The Potency was inconclusive: 10.8 µM [cytotoxic, full curve].

For `COc1ccc(C(=O)N2c3nc(-c4ccco4)nn3C3(CCCCC3)[C@@H]3CCCC[C@@H]32)cc1OC`, which Potency is on record?
Its Potency is inconclusive: 1.78 µM [cytotoxic, full curve].

Which Potency does the source give for `FC(F)(F)c1ccc(CN2CCNc3cc(Nc4ccccc4)ncc3C2)cc1` here?
The Potency was inconclusive: 0.891 µM [cytotoxic, full curve, poor fit].

With `COc1ccc(-c2cnc3[nH]cc(CC(=O)Nc4cccnc4)c3c2)cc1` as the compound, how does the Potency read?
Its Potency is “inactive”.

With `COc1ccc(CNC(=O)C2CCN(c3nccc(Nc4ccc(OC)cc4)n3)CC2)cc1` as the compound, how does the activity change, negative = cytotoxicity read?
Its activity change, negative = cytotoxicity is inactive: 3.36% [at 12.5 µM].

With `CC[C@H]1CN(C(=O)Nc2cccc(C(F)(F)F)c2)CC[C@H]1CC(=O)Nc1ccccc1` as the compound, how does the Potency read?
The Potency was inconclusive: 56.2 µM [cytotoxic, single point].

Which Potency does the source give for `COc1ccc(C2Cn3nnc(C(=O)NC4CCCCCCC4)c3CO2)cc1` (stereo unspecified) here?
The Potency was “inactive”.

With `Cc1nn2c(c1-c1ccccc1-c1ccccc1)N(Cc1ccc(O)cc1)CCC2` as the compound, how does the Potency read?
Its Potency is inconclusive: 6.31 µM [cytotoxic, full curve].

With `CCOCC1(C)COc2ccc(C(=O)N(C)Cc3ccccc3)cc2N1` (stereo unspecified) as the compound, how does the Potency read?
The Potency was inconclusive: 12.6 µM [cytotoxic, single point].

With `COCCNC(=O)[C@@H]1C[C@H](Oc2cccnc2)CN1S(=O)(=O)c1ccc2c(c1)CCC2` as the compound, how does the Potency read?
Its Potency is inconclusive: 5.01 µM [cytotoxic, single point].

For `CNC(=O)c1cc(-c2cnn(C)c2C)cc2c1OCCN2Cc1cccnc1`, which Potency is on record?
Its Potency is inconclusive: 31.6 µM [cytotoxic, partial curve, poor fit].

With `O=C(NCCN1CCC(n2c(=O)[nH]c3ccccc32)CC1)c1ccc2ccccc2c1` as the compound, how does the Potency read?
Its Potency is inconclusive: 29.9 µM [cytotoxic, single point].

Which Potency does the source give for `CCN1CCN(C(=O)C2CCN(c3ccnc4ccnn34)CC2)CC1` here?
Its Potency is inconclusive: 25.1 µM [rising, partial curve, poor fit].

For `CCOC(=O)c1cc2c(=O)n3ccccc3nc2n(CC2CCCO2)c1=NC(=O)c1cccc(C)c1` (stereo unspecified), which Potency is on record?
Its Potency is inconclusive: 12.6 µM [rising, partial curve, poor fit].

With `CCNc1ncc2nc(-c3cccs3)c(=O)n(-c3ccccc3)c2n1` as the compound, how does the Potency read?
Its Potency is inconclusive: 15.8 µM [rising, partial curve, poor fit].

Which Potency does the source give for `CC1Oc2ccc(NC(=O)c3ccccc3F)cc2CN(Cc2ccccc2F)C1=O` (stereo unspecified) here?
The Potency was “inactive”.

With `CC(C)CCNC(=O)C1CCCN(Cc2cccnc2)CCC(=O)NCC1` (stereo unspecified) as the compound, how does the Potency read?
Its Potency is inconclusive: 39.8 µM [cytotoxic, single point].

With `Cc1ccc(C2=CC(c3ccc(Cl)cc3)n3nc(-c4ccc(C)cc4)nc3N2)cc1` (stereo unspecified) as the compound, how does the Potency read?
Its Potency is inconclusive: 28.2 µM [rising, partial curve].

For `CC(C)NC(=O)c1nc(-c2cccc(F)c2)c2cnccn12`, which Potency is on record?
The Potency was inconclusive: 35.5 µM [rising, partial curve, poor fit].

Which Potency does the source give for `COc1ccc(C(=O)N[C@@H]2CCC[C@@H]2C(=O)NCCCN(C)C)cn1` here?
The Potency was inconclusive: 6.31 µM [cytotoxic, single point].

With `Cc1ccc(Cl)cc1N1CCN(C(=O)c2ccc(CS(=O)(=O)c3ccc(Br)cc3)o2)CC1` as the compound, how does the Potency read?
The Potency was inconclusive: 10 µM [rising, partial curve, poor fit].

For `Cc1ccc(-c2cccc(CN)c2)cc1Cl`, which Potency is on record?
The Potency was inconclusive: 56.2 µM [cytotoxic, single point].

For `C#CCNC[C@@H]1C=C(C)[C@H](Cc2nnc(-c3ccccc3F)o2)C[C@H]1C(C)C`, which Potency is on record?
Its Potency is inconclusive: 31.6 µM [cytotoxic, single point].

With `C=Cc1ccc(Cn2c(C(=O)O)c(CNCCc3ccccc3)c3ccc(C)cc32)cc1` as the compound, how does the Potency read?
Its Potency is active: 28.2 µM.

Which Potency does the source give for `O=C1COc2ccc(-c3ccsc3)nc2CN1Cc1ccccc1F` here?
Its Potency is “inactive”.

For `CC1Oc2ccc(NC(=O)c3ccccc3Cl)cc2CN(Cc2ccccc2F)C1=O` (stereo unspecified), which Potency is on record?
Its Potency is “inactive”.

With `Nc1c(C(=O)Nc2cccc(F)c2)sc2nc(-c3cccs3)ccc12` as the compound, how does the Potency read?
The Potency was inconclusive: 14.1 µM [rising, partial curve, poor fit].

For `COc1cccc(-c2nc(-c3nnn4c3COC(c3ccccc3Cl)C4)no2)c1OC` (stereo unspecified), which Potency is on record?
Its Potency is “inactive”.

Which Potency does the source give for `COc1ccc(CNC(=O)CCC2N=C3c4ccccc4N=C(SCc4ccc(F)cc4)N3C2=O)cc1` (stereo unspecified) here?
Its Potency is inconclusive: 39.8 µM [cytotoxic, single point].

For `CN1C(=O)c2ccc(NC(=O)C[C@H]3NC(=O)c4ccccc4NC3=O)cc2C1=O`, which Potency is on record?
Its Potency is “inactive”.

With `COc1ccc(NC(=O)c2cc3sc(C)c(CN4CCCCC4)c3[nH]2)cc1OC` as the compound, how does the Potency read?
Its Potency is “inactive”.

For `COc1ccccc1-n1c(=O)n(C)c2c(C(N)=O)nc(-c3cccc(OC)c3OC)nc21`, which Potency is on record?
Its Potency is inconclusive: 10 µM [cytotoxic, partial curve, poor fit].

Which Potency does the source give for `COc1ccc(NC(=O)CCn2cnc3onc(-c4ccc(F)cc4)c3c2=O)cc1OC` here?
Its Potency is inconclusive: 14.1 µM [cytotoxic, partial curve, poor fit].

Which Potency does the source give for `COc1ccccc1CNC(=O)c1ccc2c(c1)N(C)C1CCCCN1C2=O` (stereo unspecified) here?
Its Potency is inconclusive: 6.31 µM [rising, partial curve, poor fit].

For `CN(C)C(=O)N1CCC(C(=O)N2CCCC2c2nc3ccncc3[nH]2)CC1` (stereo unspecified), which Potency is on record?
Its Potency is “inactive”.

Which Potency does the source give for `CCCCCN1C(C(=O)c2ccccc2)=C(OC(=O)CC)c2ccccc2S1(=O)=O` here?
The Potency was inconclusive: 35.5 µM [cytotoxic, partial curve, poor fit].

For `CCCCS(=O)(=O)Nc1ncnc(OCCOc2ncc(Br)cn2)c1-c1ccc(Br)cc1`, which Potency is on record?
The Potency was “inactive”.

Which Potency does the source give for `Cc1cn2nc(C(=O)NCc3ccc(F)cc3F)cc2c(=O)[nH]1` here?
The Potency was “inactive”.

With `CC(=O)c1ccc(NC(=O)Cn2c(N3CCc4ccccc4C3)nc(C)cc2=O)cc1` as the compound, how does the Potency read?
The Potency was inconclusive: 39.8 µM [cytotoxic, single point].

For `CCOc1cccc(CN2CCOc3ccc(C(=O)NCc4ccccc4F)cc3C2)c1`, which Potency is on record?
Its Potency is “inactive”.

For `O=C(Cc1cccc(Cl)c1)N1CCC2(CC1)CCN(Cc1cccs1)c1ccccc1O2`, which Potency is on record?
Its Potency is inconclusive: 31.6 µM [cytotoxic, partial curve].

Which Potency does the source give for `COc1cc(C)ccc1OCc1cc(C(=O)N(C)Cc2ncccc2C)no1` here?
The Potency was “inactive”.

For `COc1ccc(C(=O)N2CCn3nc(C(O)CS(C)(=O)=O)cc3C2)cn1` (stereo unspecified), which Potency is on record?
Its Potency is “inactive”.

For `CC(C)N1[N]C(=C2C=c3cc(O)ccc3=N2)c2c(N)ncnc21`, which Potency is on record?
The Potency was inconclusive: 1.08 µM [cytotoxic, full curve].

With `O=C(Cn1cccc1-c1nc(-c2ccc(F)cc2)no1)N1CCc2ccccc21` as the compound, how does the Potency read?
The Potency was inconclusive: 39.8 µM [rising, single point].

For `COc1ccc(CN2CCN(C(c3ccc(F)cc3)c3ccc(F)cc3)CC2)c(OC)c1OC`, which Potency is on record?
Its Potency is inconclusive: 18.9 µM [cytotoxic, partial curve, poor fit].
